Results published in US20240076343A1 (CEPHALON, published 2024).

T1: recombinant human CD122 extracellular domain, C-terminal poly-histidine tagged (human, UniProt P14784 27-240)
T1 construct: also called CD122/IL-2Rβ; IL-2Rβ
T1 sequence: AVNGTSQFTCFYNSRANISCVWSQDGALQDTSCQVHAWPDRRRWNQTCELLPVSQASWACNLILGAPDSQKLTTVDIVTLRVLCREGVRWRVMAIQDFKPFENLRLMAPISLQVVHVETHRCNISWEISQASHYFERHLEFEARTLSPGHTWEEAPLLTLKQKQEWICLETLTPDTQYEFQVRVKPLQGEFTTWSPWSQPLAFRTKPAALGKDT

B1: 1H3-hIgG1-L6-hIL-2 (D84A) (other)
heavy: EVQLVESGGGLVQPGRSLKLSCAVSGFTFSDYAMAWVRQAPKKGLEWVATISYDGSRTYYRDSVKGRFTISRDNAKITLYLQMDSLRSEDTATYYCARHGSGYFDYWGQGVMVTVSS[not shown - about 450 residues with a human IgG1 Fc and changes]
light: DTVLTQSPALAVSPGERVTISCRASESVRTGVHWYQQKPGQQPKLLIYGASNLESGVPARFSGSGSGTDFTLTIDPVEADDTATYFCQQSWNDPFTFGSGTKLEIKRTVAAPSVFIFPPSDEQLKSGTASVVCLLNNFYPREAKVQWKVDNALQSGNSQESVTEQDSKDSTYSLSSTLTLSKADYEKHKVYACEVTHQGLSSPVTKSFNRGEC
notes: Built as m13
B2: 1H3-hIgG1-L6-hIL-2 (I92Y) (other)
heavy: EVQLVESGGGLVQPGRSLKLSCAVSGFTFSDYAMAWVRQAPKKGLEWVATISYDGSRTYYRDSVKGRFTISRDNAKITLYLQMDSLRSEDTATYYCARHGSGYFDYWGQGVMVTVSS[not shown - about 450 residues with a human IgG1 Fc and changes]
light: B1 light
notes: Built as m13
B3: 1H3-hIgG1-L6-hIL-2 (N88Y) (other)
heavy: EVQLVESGGGLVQPGRSLKLSCAVSGFTFSDYAMAWVRQAPKKGLEWVATISYDGSRTYYRDSVKGRFTISRDNAKITLYLQMDSLRSEDTATYYCARHGSGYFDYWGQGVMVTVSS[not shown - about 450 residues with a human IgG1 Fc and changes]
light: B1 light
notes: Built as m13
B4: 1H3-hIgG1-L6-hIL-2 (D84R) (other)
heavy: EVQLVESGGGLVQPGRSLKLSCAVSGFTFSDYAMAWVRQAPKKGLEWVATISYDGSRTYYRDSVKGRFTISRDNAKITLYLQMDSLRSEDTATYYCARHGSGYFDYWGQGVMVTVSS[not shown - about 450 residues with a human IgG1 Fc and changes]
light: B1 light
notes: Built as m13
B5: 1H3-hIgG1-L6-hIL-2 (N88E) (other)
heavy: EVQLVESGGGLVQPGRSLKLSCAVSGFTFSDYAMAWVRQAPKKGLEWVATISYDGSRTYYRDSVKGRFTISRDNAKITLYLQMDSLRSEDTATYYCARHGSGYFDYWGQGVMVTVSS[not shown - about 450 residues with a human IgG1 Fc and changes]
light: B1 light
notes: Built as m13
B6: 1H3-hIgG1-L6-hIL-2 (N88I) (other)
heavy: EVQLVESGGGLVQPGRSLKLSCAVSGFTFSDYAMAWVRQAPKKGLEWVATISYDGSRTYYRDSVKGRFTISRDNAKITLYLQMDSLRSEDTATYYCARHGSGYFDYWGQGVMVTVSS[not shown - about 450 residues with a human IgG1 Fc and changes]
light: B1 light
notes: Built as m13
B7: 1H3-hIgG1-L6-hIL-2 (N88D) (other)
heavy: EVQLVESGGGLVQPGRSLKLSCAVSGFTFSDYAMAWVRQAPKKGLEWVATISYDGSRTYYRDSVKGRFTISRDNAKITLYLQMDSLRSEDTATYYCARHGSGYFDYWGQGVMVTVSS[not shown - about 450 residues with a human IgG1 Fc and changes]
light: B1 light
notes: Built as m13
B8: 1H3-hIgG1-L6-hIL-2 (I92F) (other)
heavy: EVQLVESGGGLVQPGRSLKLSCAVSGFTFSDYAMAWVRQAPKKGLEWVATISYDGSRTYYRDSVKGRFTISRDNAKITLYLQMDSLRSEDTATYYCARHGSGYFDYWGQGVMVTVSS[not shown - about 450 residues with a human IgG1 Fc and changes]
light: B1 light
notes: Built as m13
B9: 1H3-hIgG1-L6-hIL-2 (I92S) (other)
heavy: EVQLVESGGGLVQPGRSLKLSCAVSGFTFSDYAMAWVRQAPKKGLEWVATISYDGSRTYYRDSVKGRFTISRDNAKITLYLQMDSLRSEDTATYYCARHGSGYFDYWGQGVMVTVSS[not shown - about 450 residues with a human IgG1 Fc and changes]
light: B1 light
notes: Built as m13
B10: 1H3-hIgG1-L6-hIL-2 (I92A) (other)
heavy: EVQLVESGGGLVQPGRSLKLSCAVSGFTFSDYAMAWVRQAPKKGLEWVATISYDGSRTYYRDSVKGRFTISRDNAKITLYLQMDSLRSEDTATYYCARHGSGYFDYWGQGVMVTVSS[not shown - about 450 residues with a human IgG1 Fc and changes]
light: B1 light
notes: Built as m13
B11: 1H3-hIgG1-L6-hIL-2 (N88F) (other)
heavy: EVQLVESGGGLVQPGRSLKLSCAVSGFTFSDYAMAWVRQAPKKGLEWVATISYDGSRTYYRDSVKGRFTISRDNAKITLYLQMDSLRSEDTATYYCARHGSGYFDYWGQGVMVTVSS[not shown - about 450 residues with a human IgG1 Fc and changes]
light: B1 light
notes: Built as m13
B12: 1H3-hIgG1-L6-hIL-2 (N88R) (other)
heavy: EVQLVESGGGLVQPGRSLKLSCAVSGFTFSDYAMAWVRQAPKKGLEWVATISYDGSRTYYRDSVKGRFTISRDNAKITLYLQMDSLRSEDTATYYCARHGSGYFDYWGQGVMVTVSS[not shown - about 450 residues with a human IgG1 Fc and changes]
light: B1 light
notes: Built as m13
B13: 1H3-hIgG1-L6-hIL-2 (L72D) (other)
heavy: EVQLVESGGGLVQPGRSLKLSCAVSGFTFSDYAMAWVRQAPKKGLEWVATISYDGSRTYYRDSVKGRFTISRDNAKITLYLQMDSLRSEDTATYYCARHGSGYFDYWGQGVMVTVSS[not shown - about 450 residues with a human IgG1 Fc and changes]
light: B1 light
notes: Built as m13
B14: 1H3-hIgG1-L6-hIL-2 (L72R) (other)
heavy: EVQLVESGGGLVQPGRSLKLSCAVSGFTFSDYAMAWVRQAPKKGLEWVATISYDGSRTYYRDSVKGRFTISRDNAKITLYLQMDSLRSEDTATYYCARHGSGYFDYWGQGVMVTVSS[not shown - about 450 residues with a human IgG1 Fc and changes]
light: B1 light
notes: Built as m13
B15: 1H3-hIgG1-L6-hIL-2 (L72H) (other)
heavy: EVQLVESGGGLVQPGRSLKLSCAVSGFTFSDYAMAWVRQAPKKGLEWVATISYDGSRTYYRDSVKGRFTISRDNAKITLYLQMDSLRSEDTATYYCARHGSGYFDYWGQGVMVTVSS[not shown - about 450 residues with a human IgG1 Fc and changes]
light: B1 light
notes: Built as m13

Target: T1, recombinant human CD122 extracellular …
Experiment: BLI (Octet)

binding result	Kd	koff	kon	Binder
no binding (tested: 300 nM)				B1
	12.3 nM	0.00557 s⁻¹	453000 M⁻¹ s⁻¹	B2
no binding (tested: 300 nM)				B3
	18.8 nM	0.00888 s⁻¹	473000 M⁻¹ s⁻¹	B4
no binding (tested: 300 nM)				B5
no binding (tested: 300 nM)				B6
no binding (tested: 300 nM)				B7
	5.45 nM	0.000559 s⁻¹	103000 M⁻¹ s⁻¹	B8
no binding (tested: 300 nM)				B9
	3.38 nM	0.00658 s⁻¹	1.95e+06 M⁻¹ s⁻¹	B10
no binding (tested: 300 nM)				B11
no binding (tested: 300 nM)				B12
	9.52 nM	0.0015 s⁻¹	157000 M⁻¹ s⁻¹	B13
	19.6 nM	0.000601 s⁻¹	30700 M⁻¹ s⁻¹	B14
	9.03 nM	0.00149 s⁻¹	165000 M⁻¹ s⁻¹	B15
